Results: PMC3310140
Results are given in words; binding and its absence hold for the method and conditions named. Some entries that bind do so weakly or less than the wild type.

T1: Mug20 (S. pombe) (UniProt Q9HGN4)
T1 sequence: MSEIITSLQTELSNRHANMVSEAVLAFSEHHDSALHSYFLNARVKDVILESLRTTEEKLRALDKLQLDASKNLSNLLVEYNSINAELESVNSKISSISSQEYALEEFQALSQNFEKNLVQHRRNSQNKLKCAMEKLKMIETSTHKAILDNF

T2: Rec10 (S. pombe) (UniProt Q09823)
T2 sequence: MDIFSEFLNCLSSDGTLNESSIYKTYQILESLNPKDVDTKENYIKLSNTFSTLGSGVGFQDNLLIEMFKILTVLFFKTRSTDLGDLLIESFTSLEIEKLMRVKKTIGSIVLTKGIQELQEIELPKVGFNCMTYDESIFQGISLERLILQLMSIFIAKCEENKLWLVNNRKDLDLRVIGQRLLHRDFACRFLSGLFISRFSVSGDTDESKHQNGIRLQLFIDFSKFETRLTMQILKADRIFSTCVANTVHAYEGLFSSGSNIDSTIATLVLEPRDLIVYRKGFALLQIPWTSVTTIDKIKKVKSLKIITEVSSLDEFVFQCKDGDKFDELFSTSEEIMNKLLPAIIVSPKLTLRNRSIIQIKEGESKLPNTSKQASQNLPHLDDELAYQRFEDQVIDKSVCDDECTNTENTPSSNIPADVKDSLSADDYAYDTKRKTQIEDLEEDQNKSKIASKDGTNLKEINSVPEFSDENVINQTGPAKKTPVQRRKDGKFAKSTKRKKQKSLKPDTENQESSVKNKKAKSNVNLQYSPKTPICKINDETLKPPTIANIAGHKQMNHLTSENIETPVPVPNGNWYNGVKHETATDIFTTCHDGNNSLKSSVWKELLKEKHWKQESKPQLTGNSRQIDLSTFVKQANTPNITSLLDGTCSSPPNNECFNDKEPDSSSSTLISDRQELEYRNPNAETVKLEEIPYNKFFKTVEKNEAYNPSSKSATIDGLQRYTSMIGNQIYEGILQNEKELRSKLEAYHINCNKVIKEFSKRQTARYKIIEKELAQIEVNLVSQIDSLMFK


Tests used:
Mug20 (S. pombe) = molecular target: T1, Mug20 (S. pombe); assay: two-hybrid; Matchmaker GAL4 Two-Hybrid System 3; pGBKT7 (BD) baits in one and pGADT7 (AD) preys in the other of S. cerevisiae Y187 and AH109, mated; spot tests of 1:10 dilution series on -Leu-Trp-His and -Leu-Trp-Ade media, growth read after 2-3 days; repeated three times
Rec10 (S. pombe) = molecular target: T2, Rec10 (S. pombe); assay: as above

Binder	binding (Mug20 (S. pombe))	binding (Rec10 (S. pombe))
Rec25 (protein, UniProt Q9C115 1-150) MVKGSVTNTSSIVKQFEKSSIKHETETIAFAKQFINECIREFQEQKDNVVEEKNTDQNHQNQNQEGVIIEIYQELLQKVDLISSELRQNLSSLQLRFQEVERDTGHDLLNVLNSLSQEARLAQKVLEEDGSQQGSQLIQGLLTCFQSTGN	binds	binds
Mug20 (protein, UniProt Q9HGN4 1-151) MSEIITSLQTELSNRHANMVSEAVLAFSEHHDSALHSYFLNARVKDVILESLRTTEEKLRALDKLQLDASKNLSNLLVEYNSINAELESVNSKISSISSQEYALEEFQALSQNFEKNLVQHRRNSQNKLKCAMEKLKMIETSTHKAILDNF	binds	
Hop1 (protein, UniProt Q9P7P2 1-528) MNSYKEEILQTKSDFTLKNLIFFAISTLCYKRALFNENCYKKVNFEIEHFKGADFDCQLKPTVVSLQAGVDKEADSFLEMMKTYIFSLVSMKVPFTVYLIISSQCKSILEDDAVEKEIFSFTINPGSEEKICCESFVSYQRSERFVIKLFLSGNVKTECKDEEKVVQIITKMERFQLSKGEATKAGVFLNTVETKDCMSWLNRGEFKDIVSFYESNNGIAISHCSHAFVPISTEKIMINKESSLFDSQEKIDSQLEKFLQPLKYDEIGSTQILDEQSVEKSLSQGKCEKMQNESRGLREIKNNNPCEEVKKSNWLKKNISGSDKVDKAEKKKALLNCECGDSTEDSEMFQCERCDGWVHCACYGFESDSDPRQPNQLLCYTCLLVDSESSLYDRMTMLVAYRRAIRCIWASEYQGFQKLAARLNCSYADAKRIEERLVNENIIYKEKKRKWIYFTNKSPEMVSYLREKYFTPSRWISHLNFQNYRQENQRVNMRSFLRPERMEVIERPKKVSKTSNTKETDTMKPLRI		binds
Rec10 (protein, UniProt Q09823 1-791) MDIFSEFLNCLSSDGTLNESSIYKTYQILESLNPKDVDTKENYIKLSNTFSTLGSGVGFQDNLLIEMFKILTVLFFKTRSTDLGDLLIESFTSLEIEKLMRVKKTIGSIVLTKGIQELQEIELPKVGFNCMTYDESIFQGISLERLILQLMSIFIAKCEENKLWLVNNRKDLDLRVIGQRLLHRDFACRFLSGLFISRFSVSGDTDESKHQNGIRLQLFIDFSKFETRLTMQILKADRIFSTCVANTVHAYEGLFSSGSNIDSTIATLVLEPRDLIVYRKGFALLQIPWTSVTTIDKIKKVKSLKIITEVSSLDEFVFQCKDGDKFDELFSTSEEIMNKLLPAIIVSPKLTLRNRSIIQIKEGESKLPNTSKQASQNLPHLDDELAYQRFEDQVIDKSVCDDECTNTENTPSSNIPADVKDSLSADDYAYDTKRKTQIEDLEEDQNKSKIASKDGTNLKEINSVPEFSDENVINQTGPAKKTPVQRRKDGKFAKSTKRKKQKSLKPDTENQESSVKNKKAKSNVNLQYSPKTPICKINDETLKPPTIANIAGHKQMNHLTSENIETPVPVPNGNWYNGVKHETATDIFTTCHDGNNSLKSSVWKELLKEKHWKQESKPQLTGNSRQIDLSTFVKQANTPNITSLLDGTCSSPPNNECFNDKEPDSSSSTLISDRQELEYRNPNAETVKLEEIPYNKFFKTVEKNEAYNPSSKSATIDGLQRYTSMIGNQIYEGILQNEKELRSKLEAYHINCNKVIKEFSKRQTARYKIIEKELAQIEVNLVSQIDSLMFK	no binding	
